# Test results taken from the supplement of paper PMC9513381.
# Recombinant human monoclonal antibodies (heavy:light variable regions). ELISA EC50 on the named antigen, from 10 µg/ml down; IC50 / IC90 against spike pseudovirus on 293T-ACE2 cells, 48 h; lower = stronger. Calls: IC50 above 1,000 ng/ml = non-neutralizing; EC50 above 1,000 ng/ml = non-binder. The source prints 1000 for neutralization that was not reached; it is given as >1000 ng/ml. Only binders of the Wuhan-Hu-1 domain have neutralization values.
# B1: B2087 (protein)
# chain 1: EVQLVESGGGLVQPGRSLRLSCAASGFTFDNHAMHWVRQAPGKGLEWVSGVSWNSGTIGYADSVKGRFIIIRDNAKNSLYLQMNRLRPEDTALYYCAKDGSFLDTDHFYFDYWGQGTLVTVSS
# chain 2: QSVLTQPPSVSAAPGQKVTISCSGTSSNIGNNYVSWYQQLPGIAPKLLIYDNNKRPSGIPDRFSGSKSGTSATLGITGLQTGDEADYYCGTWDSGLSAVVFGGGTKLTVL
# B2: B2088 (protein)
# chain 1: QVQLQESGPGLVKPSQTLSLTCTVSGGSISSSDYYWSWVRQRPGKGLEWIGYAYYTGITYYNPSLKSRLTISVDTSKNQFSLRLSSVTAADTAVYYCARIGRPFGVVPGFDNWGQGTLVTVSS
# chain 2: QSALTQPASVSGSPGQSTTISCTGTSGDVGSYDLVSWYQHHPGKAPKLMIYEVTKRPSGVSNRFSGSKSGNTASLTISGLQAEDEADYYCCSYAGSSAVIFGGGTKLTVL
# B3: B2090 (protein)
# chain 1: EVQLVESGGGLVQPGGSLRLSCAASGFTFSSYDMHWVRQETGKGLEWVSAIGTAGDTYYLGSVKGRFTISRENAKNSLYLQMNSLRAGDTAVYYCARAGNGYNLGSWYFDLWGRGTLVTVSS
# chain 2: DIQLTQSPSSLSASVGDRVTITCRASQFISSYLNWYQQKPGKAPKLLIYAASTLQSGVPSRFSGGGSGTDFTLTISSLQREDFATYYCQQSYSMPPISFGQGTRLEIK
# B4: B2093 (protein)
# chain 1: QVQLVESGGGVVQPGNSLRLSCAASGFTFSTYGMHWVRQAPGKGLEWVAIIWYDGNNKFYGDSVKGRFTISRDNSKNKLYLQMNSLRAEDTAVYYCARSGIRFSEWLLQDYWGQGTLVTVSS
# chain 2: EIVLTQSPGTLSLSPGERATLSCRASQSISISYLAWYQQKPGQAPRLLIYGASSRATGIPDRFSGSGSGTDFTLTISRLEPEDFAVYYCQQFGSTRATFGQGTKLEIK
# B5: B002 (protein)
# chain 1: QVQLVESGGGVVQPGRSLRLSCAASGFTFGKYGMHWVRQAPGKGLEWVAGISYDGDYKDYADSLKGRVTISRDNSNNKMYLQMNSLRAEDTAVYYCAKKISEYCGGDCHTAYFDYWGQGTLVTVSS
# chain 2: DIQMTQSPVSLSASVGDRVTITCQASHDIANSLIWYQQRPGKAPKSLIYDASNLEAGVPSRFSGSGSGTDFSLTISSLQPEDLATYYCQQYHNMPLTFGGGTKVQTK
# B6: B2095 (protein)
# chain 1: QVQLQESGPGLVKASETLSLTCTVSGDSISRYYWSWIRQPPGKGLEWIGYIYDSRSTNYNPSLKSRVTISIDTSKNHFSLKLSSVTAADTAVYYCARHEVLTAILPYFDLWGRGTLVTVSS
# chain 2: NFMLTQPHSVSESPGKTVTISCTRSSGSIDSNYVQWYQQRPGSAPTTVIFEDNQRPSGVPDRFSGSIDTSSNSASLTISGLKTEDEADYYCQSYDSSIHVVFGGGTKLTVL
# B7: B2096 (protein)
# chain 1: EVQLVESGGGLIQPGGSLRLSCAASGLTVSSNYMSWVRQAPGKGLEWVSVIYSGGSTFYSDSVKGRFTISRDNSKNTLYLQMNSLRAEDTAVYYCARDRKENYFDYWGQGTLVTVSS
# chain 2: QSALTQPASVSGSPGQSIIISCTGTSSDVGGFHYVSWYQQHPGKAPKLMIYDVSNRPSGVSNRFSGSKSGNTASLTISGLQPEDEADYYCSSYTSGSTLFYVFGTGTKVTV
# B8: B003 (protein)
# chain 1: EVQLVESGGGLVQPGGSLRLSCAASEIIVGHNYMSWVRQAPGKGLEWVSIIYPGGTTYYADSVKGRFSISRDNSKNTLYLQMNSLRVEDTAVYYCARDLGPAGGMDVWGQGTTVTVSS
# chain 2: AIQMTQSPSSLSASVGDRVTITCRASQDIGNDLGWYQQKPGKAPKLLIYAASSLQTGVPSRFSGSGSGTDFTLTISSLQPEDFATYYCLQDSNYPYTFGQGTKLEIK
# B9: B006 (protein)
# chain 1: QVQLQESGPGLVKPSETLSLTCTVSGGSISSYYWSWVRQSPGKGLEWIGYIYYSGSTNYNPSLKSRVTISVDTSKSQFSLKLSSVTAADTAVYYCASYYYDSSGYSYGLDVWGQGTTVTVSS
# chain 2: DIQMTQSPSSVSASVGDRVTITCRASQGVAGWLAWYQQKPGKAPKLLIYATSTLQSGVPSRFSGSGSGTDFTLTISSLQPEDFATYYCQQTNSFPLTFGGGTKVDIK
# B10: B007 (protein)
# chain 1: EVQLVESGGGLVQPGGSLTLSCAASGLTVSSNYMSWLRQTPGKGLEWVSTIYSGGSTYYADSVKGRFTISRDNSKNTLYLQMNSLRDEDTAVYYCARDLPPGTTAPHHYYDMDVWGQGTTVIV
# chain 2: EIVLTQSPATLSLSPGERATLSCRASQSVSSYLAWYQQKPGQAPRLLIYDASNRATGFPARFSGSGSGTDFTLTINSLEPEDFAVYYCQQRSNWPYTFGQGTKLEIK
# B11: B009 (protein)
# chain 1: EVQLVESGGGLIQPGGSLRLSCAASGLIVSSNYMSWVRQAPGKGLEWVSVVYPGGTTYSADSVKGRFTISRDNSKNTLYLQMNSLSAEDTAVYYCARVSGGAVKVLEDAFDIWGQGTMVTVSS
# chain 2: SYELTQPPSVSVAPGKTARITCGGNNIGSKSVHWYQQKPGQAPVLVIYYDSARPSGIPERFSGSNSGNTATLTISRVEAGDEADYSCQVWDTSSDRGVFGGGTKLTVL
# B12: B010 (protein)
# chain 1: QVQLVESGGGVVQPGRSLRLSCATSGFTFRSYAMHWVRQAPGKGLEWVAIISHDGTEKFYADSVKGRITVSRDNSKNTLYLQLNTLRPEDTAVYYCARDVSCGGDCYPGGFDFWGQGTLVTVSS
# chain 2: EIVLTQSPGTLSLSPGERATLSCRASQSVRSNYIAWYQQKPGQAPRLLINGASSRATGVPDRFSGSGSGTDFTLTISRLEPEDFAVYYCQHYDKSPSWTFGQGTKVEMK
# B13: B011 (protein)
# chain 1: QVQLVESGGGVVQPGRSLRLSCATSGFTFRSYAMHWVRQAPGKGLEWVAIISYDGSDKNYADSVKGRLTISRDNSKNILYLQMNSLRPEDTAIYYCARDVSCGGDCYPGGFDYWGQGTLVTVSS
# chain 2: AIQMTQSPSSLSASVGDRVTITCRASQDIRNDLGWYQQKPGKAPKLLIYAASSLQNGVPSRFSGSGSGTDFTLTISSLQPEDFATYYCLQDYSSPWTFGQGTKVEFK
# B14: B013 (protein)
# chain 1: QVQLVESGGGVVQPGRSLRLSCAASGFTFSTYGMHWVRQAPGKGLEWVALISYDGSDKYYADSVKGRFTISRDNSKDTLFLRLNSLRAEDTAVYYCAKQISPYYASGRSYFDYWGQGVLVTVSS
# chain 2: DIQMTQSPSSLSATVGDRVTITCQASQDISYYLGWYQQKPGKAPKLVIYDASDLEAGVPSTFSGSGSGTDFTFTISSLQPEDIATYYCQQYDNLPPTFGGGTKVEIK
# Target: SARS-CoV-2 Wuhan-Hu-1 spike pseudovirus
# Assay: pseudovirus neutralization IC50; higher = weaker neutralization
# Protocol: (§1)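 Single-round luciferase reporter pseudovirus mixed with antibody dilutions and put on 293T-ACE2 cells for 48 h; signal relative to no-antibody wells, four-parameter fit.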
row,Binder,pseudovirus neutralization IC50 [µg/mL]
1,B1,0.0155
2,B2,> 1
3,B3,> 1
4,B4,> 1
5,B5,> 1
6,B6,0.016
7,B7,0.0217
8,B8,0.00931
9,B9,0.719
10,B10,> 1
11,B11,> 1
12,B12,0.0802
13,B13,> 1
14,B14,> 1

# Target: SARS-CoV-2 Wuhan-Hu-1 spike pseudovirus
# Assay: pseudovirus neutralization IC90; higher = weaker neutralization
# Protocol: as §1
row,Binder,pseudovirus neutralization IC90 [µg/mL]
1,B1,0.386
2,B2,> 1
3,B3,> 1
4,B4,> 1
5,B5,> 1
6,B6,0.186
7,B7,0.141
8,B8,0.0588
9,B9,> 1
10,B10,> 1
11,B11,> 1
12,B12,> 1
13,B13,> 1
14,B14,> 1

# Target: SARS-CoV-2 Delta (B.1.617.2) spike RBD
# Assay: ELISA binding EC50; higher = weaker binding; ELISA of recombinant human antibody on coated antigen, from 10 µg/ml in fourfold dilutions; four-parameter fit.
row,Binder,ELISA binding EC50 [µg/mL]
1,B1,0.0117
2,B2,0.0347
3,B3,0.0348
4,B4,> 1
5,B5,0.00639
6,B6,0.0473
7,B7,0.0916
8,B8,0.00749
9,B9,0.05
10,B10,0.00271
11,B11,> 1
12,B12,0.00559
13,B13,0.218
14,B14,0.0144

# Target: SARS-CoV-2 Omicron BA.1 spike protein
# Assay: as above
row,Binder,ELISA binding EC50 [µg/mL]
1,B1,0.0317
2,B2,0.222
3,B3,0.31
4,B4,> 1
5,B5,0.00602
6,B6,0.03
7,B7,> 1
8,B8,0.00789
9,B9,0.00604
10,B10,0.0502
11,B11,> 1
12,B12,0.0123
13,B13,0.418
14,B14,0.00917

# Target: SARS-CoV-2 Wuhan-Hu-1 spike receptor-binding domain
# Assay: as above
row,Binder,ELISA binding EC50 [µg/mL]
1,B1,0.00248
2,B2,0.00465
3,B3,0.00543
4,B4,0.00377
5,B5,0.00296
6,B6,0.00677
7,B7,0.011
8,B8,0.00338
9,B9,0.00556
10,B10,0.00143
11,B11,0.208
12,B12,0.00371
13,B13,0.00445
14,B14,0.00365
